Source: the supplement of paper PMC11181314
This is one part of the list. Single values of this set are uncertain.

test system: U2OS; assay: Cell Painting induction (percent of morphological features significantly changed vs DMSO); higher = stronger morphological change; details: 10 µM; 20 h; run: primary screen (compounds selected for induction >=10%)
Procedure: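 Cell Painting assay in U2OS cells: compounds at 10 µM for 20 h, six dyes, 579 robust CellProfiler features as Z-scores vs DMSO median (MAD). Induction is the % of significantly changed features (active if ≥5%); relative cell count is in % of DMSO. The primary run holds DCM compounds preselected for induction ≥10%; the confirmation repeat defines active compounds (370 of 549). Replicate agreement is low, attributed to precipitation.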
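Note: stains mark DNA, RNA and nucleoli, ER, actin, Golgi, plasma membrane and mitochondria, read by high-content imaging, with DMSO controls at matching solvent concentration.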

| SMILES | Cell Painting induction [%] |
| --- | --- |
| COc1cccc(NC(=O)c2cnn(-c3ccc(C)cc3)c2C2CCNCC2)c1 | 25.9 |
| Cc1cccc(N2CCN(C(=O)CCC(=O)N3CCOc4ccc(Cl)cc43)CC2C)c1 (stereo unspecified) | 26.3 |
| CCCCCCC(O)(c1ccc(OC)cc1)C(CN1CCOCC1)c1ccccc1 (stereo unspecified) | 49.6 |
| COc1ccc(CN2CCN(Cc3ccccc3F)CC2)c(OC)c1 | 11.1 |
| Cc1ccc(-n2nc(-c3ccc(F)cc3)c3cnc4cc5c(cc4c32)OCCO5)cc1 | 59.4 |
| COc1ccc(C)cc1S(=O)(=O)n1cnc2ccccc21 | 41.6 |
| Cn1cc(C(=O)NCc2ccc(Cl)cc2)c(=O)c2cc(S(=O)(=O)N3CCOCC3)ccc21 | 21.9 |
| Cn1c(=O)c2c(nc(CN3CCN(c4ccccc4)CC3)n2Cc2ccccc2Cl)n(C)c1=O | 24.5 |
| Cc1cc(C(=O)Nc2c(C)nn(Cc3c(Cl)cccc3Cl)c2C)no1 | 16.8 |
| O=C(CCS(=O)(=O)c1cccs1)Nc1ccc(C(=O)NC2CCN(Cc3ccccc3)CC2)cc1 | 12.3 |
| CCOC(=O)c1ccc(NC(=S)NC2CC(C)(C)NC(C)(C)C2)cc1 | 49.1 |
| CCc1nc(SCC(=O)Nc2ccc(F)cc2)c2c(=O)n(C)c(=O)n(C)c2n1 | 21.6 |
| CCOc1ccccc1CNC(=O)C1CCN(C(=O)N2CC(C)Oc3ccc(C)cc32)CC1 (stereo unspecified) | 10 |
| COc1cccc(C(=O)CC(=O)C(=O)Nc2cc(Cl)c(OC)cc2OC)c1 | 18.5 |
| CC(C)N(CCCNC(=O)C1CCN(C(=O)c2cc3sccc3n2C)CC1)Cc1ccccc1 | 28.8 |
| COc1ccc2c(c1)CCc1c(C(=O)NCc3ccc(Cl)cc3)noc1-2 | 36.6 |
